{"source": "the supplement of paper PMC8728848", "binders": {"B1": {"name": "DrGal3 (Danio rerio) (protein)", "chain": "MDLSDALDAPPQQNNQQAGGPVWPGQPANPVWPGQPANPTWPGQPNQPAWPGQPNQQWPGQPGQPTAPGWPGPAPQTGPYGAPGQAPQVLTVPLDFPLQNGAYNKMLITINGEVKPNAKQFTVNLRRGNDIAFHINPRFSEGGKPVIVRNSMIGNNWGREERELPSFPFVPGKPFEMKILITDTEYKVAVNKSHLLEFKHRVFELNQITGLSIYNDVTLSTVNVETLQ"}}, "experiment_in_all_cases": "glycan array binding signal (z-score within array); higher = stronger binding", "conditions_in_all_cases": "glycan notation: IUPAC condensed, linker removed", "key": {"[1]": {"biological_target": "Fuc(a1-2)[GalNAc(b1-3)]Gal", "summary_of_the_method": "(§1)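 Glycan array data came from 3228 arrays in the Consortium for Functional Glycomics database, and only arrays with an available protein sequence were kept. Glycan names were put into IUPAC-condensed notation, and columns mapping to the same glycan were averaged. The binding signal is a within-array Z-score, averaged across arrays of one protein sequence run at different concentrations or buffers and across linkers. A negative Z-score can be read as non-binding.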"}, "Fuc(a1-3)GlcNAc": {"biological_target": "Fuc(a1-3)GlcNAc", "summary_of_the_method": "as §1"}, "[2]": {"biological_target": "Fuc(a1-3)[Gal(b1-4)]Glc6S", "summary_of_the_method": "as §1"}, "[3]": {"biological_target": "Fuc(a1-3)[Gal(b1-4)]GlcNAc", "summary_of_the_method": "as §1"}, "[4]": {"biological_target": "Fuc(a1-3)[Gal(b1-4)]GlcNAc(b1-2)Man", "summary_of_the_method": "as §1"}, "[5]": {"biological_target": "Fuc(a1-3)[Gal(b1-4)]GlcNAc(b1-2)Man(a1-3)[Fuc(a1-3)[Gal(b1-4)]GlcNAc(b1-2)Man(a1-6)]Man(b1-4)GlcNAc(b1-4)GlcNAc", "summary_of_the_method": "as §1"}, "[6]": {"biological_target": "Fuc(a1-3)[Gal(b1-4)]GlcNAc(b1-2)Man(a1-3)[Fuc(a1-3)[Gal(b1-4)]GlcNAc(b1-2)Man(a1-6)]Man(b1-4)GlcNAc(b1-4)[Fuc(a1-6)]GlcNAc", "summary_of_the_method": "as §1"}, "[7]": {"biological_target": "Fuc(a1-3)[Gal(b1-4)]GlcNAc(b1-3)Gal(b1-3)[Fuc(a1-4)]GlcNAc", "summary_of_the_method": "as §1"}, "[8]": {"biological_target": "Fuc(a1-3)[Gal(b1-4)]GlcNAc(b1-3)Gal(b1-4)[Fuc(a1-3)]GlcNAc", "summary_of_the_method": "as §1"}, "[9]": {"biological_target": "Fuc(a1-3)[Gal(b1-4)]GlcNAc(b1-3)Gal(b1-4)[Fuc(a1-3)]GlcNAc(b1-3)Gal(b1-4)[Fuc(a1-3)]GlcNAc", "summary_of_the_method": "as §1"}, "[10]": {"biological_target": "Fuc(a1-3)[Gal(b1-4)]GlcNAc(b1-3)GalNAc", "summary_of_the_method": "as §1"}, "[11]": {"biological_target": "Fuc(a1-3)[Gal(b1-4)]GlcNAc(b1-6)GalNAc", "summary_of_the_method": "as §1"}, "[12]": {"biological_target": "Fuc(a1-3)[Gal(b1-4)]GlcNAc(b1-6)[Gal(b1-3)GlcNAc(b1-3)]Gal(b1-4)Glc", "summary_of_the_method": "as §1"}, "[13]": {"biological_target": "Fuc(a1-3)[Gal(b1-4)]GlcNAc6S", "summary_of_the_method": "as §1"}, "[14]": {"biological_target": "Fuc(a1-3)[Gal3S(b1-4)]Glc", "summary_of_the_method": "as §1"}, "[15]": {"biological_target": "Fuc(a1-3)[Gal3S(b1-4)]GlcNAc", "summary_of_the_method": "as §1"}, "[16]": {"biological_target": "Fuc(a1-3)[Gal3S(b1-4)]GlcNAc6S", "summary_of_the_method": "as §1"}, "[17]": {"biological_target": "Fuc(a1-3)[GalNAc(b1-4)]GlcNAc", "summary_of_the_method": "as §1"}, "[18]": {"biological_target": "Fuc(a1-3)[GalNAc(b1-4)]GlcNAc6S", "summary_of_the_method": "as §1"}, "Fuc(a1-4)GlcNAc": {"biological_target": "Fuc(a1-4)GlcNAc", "summary_of_the_method": "as §1"}, "Fuc(b1-3)GlcNAc": {"biological_target": "Fuc(b1-3)GlcNAc", "summary_of_the_method": "as §1"}, "Gal(a1-2)Gal": {"biological_target": "Gal(a1-2)Gal", "summary_of_the_method": "as §1"}, "Gal(a1-3)Gal": {"biological_target": "Gal(a1-3)Gal", "summary_of_the_method": "as §1"}, "Gal(a1-3)Gal(b1-3)GlcNAc": {"biological_target": "Gal(a1-3)Gal(b1-3)GlcNAc", "summary_of_the_method": "as §1"}, "[19]": {"biological_target": "Gal(a1-3)Gal(b1-3)GlcNAc(b1-2)Man", "summary_of_the_method": "as §1"}, "[20]": {"biological_target": "Gal(a1-3)Gal(b1-3)GlcNAc(b1-2)Man(a1-3)[Gal(a1-3)Gal(b1-3)GlcNAc(b1-2)Man(a1-6)]Man(b1-4)GlcNAc(b1-4)GlcNAc", "summary_of_the_method": "as §1"}, "[21]": {"biological_target": "Gal(a1-3)Gal(b1-3)GlcNAc(b1-3)GalNAc", "summary_of_the_method": "as §1"}, "[22]": {"biological_target": "Gal(a1-3)Gal(b1-3)GlcNAc(b1-6)GalNAc", "summary_of_the_method": "as §1"}, "[23]": {"biological_target": "Gal(a1-3)Gal(b1-3)[Fuc(a1-4)]GlcNAc(b1-2)Man(a1-3)[Gal(a1-3)Gal(b1-3)[Fuc(a1-4)]GlcNAc(b1-2)Man(a1-6)]Man(b1-4)GlcNAc(b1-4)GlcNAc", "summary_of_the_method": "as §1"}, "Gal(a1-3)Gal(b1-4)Glc": {"biological_target": "Gal(a1-3)Gal(b1-4)Glc", "summary_of_the_method": "as §1"}, "Gal(a1-3)Gal(b1-4)GlcNAc": {"biological_target": "Gal(a1-3)Gal(b1-4)GlcNAc", "summary_of_the_method": "as §1"}, "[24]": {"biological_target": "Gal(a1-3)Gal(b1-4)GlcNAc(b1-2)Man", "summary_of_the_method": "as §1"}, "[25]": {"biological_target": "Gal(a1-3)Gal(b1-4)GlcNAc(b1-2)Man(a1-3)[Gal(a1-3)Gal(b1-4)GlcNAc(b1-2)Man(a1-6)]Man(b1-4)GlcNAc(b1-4)GlcNAc", "summary_of_the_method": "as §1"}, "[26]": {"biological_target": "Gal(a1-3)Gal(b1-4)GlcNAc(b1-3)GalNAc", "summary_of_the_method": "as §1"}, "[27]": {"biological_target": "Gal(a1-3)Gal(b1-4)GlcNAc(b1-6)GalNAc", "summary_of_the_method": "as §1"}, "[28]": {"biological_target": "Gal(a1-3)Gal(b1-4)[Fuc(a1-3)]GlcNAc", "summary_of_the_method": "as §1"}, "[29]": {"biological_target": "Gal(a1-3)Gal(b1-4)[Fuc(a1-3)]GlcNAc(b1-2)Man(a1-3)[Gal(a1-3)Gal(b1-4)[Fuc(a1-3)]GlcNAc(b1-2)Man(a1-6)]Man(b1-4)GlcNAc(b1-4)GlcNAc", "summary_of_the_method": "as §1"}, "Gal(a1-3)GalNAc": {"biological_target": "Gal(a1-3)GalNAc", "summary_of_the_method": "as §1"}, "[30]": {"biological_target": "Gal(a1-3)[Gal(a1-4)]Gal(b1-4)GlcNAc", "summary_of_the_method": "as §1"}, "[31]": {"biological_target": "Gal(a1-4)Gal(b1-3)GlcNAc(b1-2)Man(a1-3)[Gal(a1-4)Gal(b1-3)GlcNAc(b1-2)Man(a1-6)]Man(b1-4)GlcNAc(b1-4)GlcNAc", "summary_of_the_method": "as §1"}, "Gal(a1-4)Gal(b1-4)Glc": {"biological_target": "Gal(a1-4)Gal(b1-4)Glc", "summary_of_the_method": "as §1"}, "Gal(a1-4)Gal(b1-4)GlcNAc": {"biological_target": "Gal(a1-4)Gal(b1-4)GlcNAc", "summary_of_the_method": "as §1"}, "[32]": {"biological_target": "Gal(a1-4)Gal(b1-4)GlcNAc(b1-2)Man(a1-3)[Gal(a1-4)Gal(b1-4)GlcNAc(b1-2)Man(a1-6)]Man(b1-4)GlcNAc(b1-4)GlcNAc", "summary_of_the_method": "as §1"}, "[33]": {"biological_target": "Gal(a1-4)Gal(b1-4)GlcNAc(b1-3)Gal(b1-4)Glc", "summary_of_the_method": "as §1"}, "Gal(a1-4)GlcNAc": {"biological_target": "Gal(a1-4)GlcNAc", "summary_of_the_method": "as §1"}}, "note": "The other results are listed elsewhere or left out."}
{"binder": "B1", "values": [{"measurement": "glycan array binding signal (z-score)", "setting": "[1]", "result": -0.274}, {"measurement": "glycan array binding signal (z-score)", "setting": "Fuc(a1-3)GlcNAc", "result": -0.278}, {"measurement": "glycan array binding signal (z-score)", "setting": "[2]", "result": -0.225}, {"measurement": "glycan array binding signal (z-score)", "setting": "[3]", "result": -0.229}, {"measurement": "glycan array binding signal (z-score)", "setting": "[4]", "result": -0.223}, {"measurement": "glycan array binding signal (z-score)", "setting": "[5]", "result": -0.258}, {"measurement": "glycan array binding signal (z-score)", "setting": "[6]", "result": -0.268}, {"measurement": "glycan array binding signal (z-score)", "setting": "[7]", "result": -0.252}, {"measurement": "glycan array binding signal (z-score)", "setting": "[8]", "result": -0.26}, {"measurement": "glycan array binding signal (z-score)", "setting": "[9]", "result": -0.249}, {"measurement": "glycan array binding signal (z-score)", "setting": "[10]", "result": -0.254}, {"measurement": "glycan array binding signal (z-score)", "setting": "[11]", "result": -0.166}, {"measurement": "glycan array binding signal (z-score)", "setting": "[12]", "result": -0.249}, {"measurement": "glycan array binding signal (z-score)", "setting": "[13]", "result": -0.125}, {"measurement": "glycan array binding signal (z-score)", "setting": "[14]", "result": -0.188}, {"measurement": "glycan array binding signal (z-score)", "setting": "[15]", "result": -0.221}, {"measurement": "glycan array binding signal (z-score)", "setting": "[16]", "result": -0.244}, {"measurement": "glycan array binding signal (z-score)", "setting": "[17]", "result": -0.156}, {"measurement": "glycan array binding signal (z-score)", "setting": "[18]", "result": -0.227}, {"measurement": "glycan array binding signal (z-score)", "setting": "Fuc(a1-4)GlcNAc", "result": -0.202}, {"measurement": "glycan array binding signal (z-score)", "setting": "Fuc(b1-3)GlcNAc", "result": -0.277}, {"measurement": "glycan array binding signal (z-score)", "setting": "Gal(a1-2)Gal", "result": -0.233}, {"measurement": "glycan array binding signal (z-score)", "setting": "Gal(a1-3)Gal", "result": -0.263}, {"measurement": "glycan array binding signal (z-score)", "setting": "Gal(a1-3)Gal(b1-3)GlcNAc", "result": -0.243}, {"measurement": "glycan array binding signal (z-score)", "setting": "[19]", "result": -0.255}, {"measurement": "glycan array binding signal (z-score)", "setting": "[20]", "result": -0.214}, {"measurement": "glycan array binding signal (z-score)", "setting": "[21]", "result": -0.287}, {"measurement": "glycan array binding signal (z-score)", "setting": "[22]", "result": -0.209}, {"measurement": "glycan array binding signal (z-score)", "setting": "[23]", "result": -0.227}, {"measurement": "glycan array binding signal (z-score)", "setting": "Gal(a1-3)Gal(b1-4)Glc", "result": -0.233}, {"measurement": "glycan array binding signal (z-score)", "setting": "Gal(a1-3)Gal(b1-4)GlcNAc", "result": -0.198}, {"measurement": "glycan array binding signal (z-score)", "setting": "[24]", "result": -0.211}, {"measurement": "glycan array binding signal (z-score)", "setting": "[25]", "result": -0.088}, {"measurement": "glycan array binding signal (z-score)", "setting": "[26]", "result": -0.195}, {"measurement": "glycan array binding signal (z-score)", "setting": "[27]", "result": -0.146}, {"measurement": "glycan array binding signal (z-score)", "setting": "[28]", "result": -0.273}, {"measurement": "glycan array binding signal (z-score)", "setting": "[29]", "result": -0.205}, {"measurement": "glycan array binding signal (z-score)", "setting": "Gal(a1-3)GalNAc", "result": -0.007}, {"measurement": "glycan array binding signal (z-score)", "setting": "[30]", "result": 0.637}, {"measurement": "glycan array binding signal (z-score)", "setting": "[31]", "result": -0.265}, {"measurement": "glycan array binding signal (z-score)", "setting": "Gal(a1-4)Gal(b1-4)Glc", "result": -0.111}, {"measurement": "glycan array binding signal (z-score)", "setting": "Gal(a1-4)Gal(b1-4)GlcNAc", "result": -0.224}, {"measurement": "glycan array binding signal (z-score)", "setting": "[32]", "result": -0.251}, {"measurement": "glycan array binding signal (z-score)", "setting": "[33]", "result": -0.152}, {"measurement": "glycan array binding signal (z-score)", "setting": "Gal(a1-4)GlcNAc", "result": -0.242}]}
